The values that follow are results of earlier work, collected in US11975106B2, “Uses of halogenated xanthenes in oncology and virology” (Provectus Pharmatech, Inc., priority 2020, dated 2024).

The data set concerns COVID-19. To be noted: patients hospitalized with COVID-19; cited from earlier work.

As for `CCN(CCO)CCCC(C)Nc1ccnc2cc(Cl)ccc12` (stereo not shown) [hydroxychloroquine], the “benefit / effect on mortality” value is given as “no benefits”.
